Source: the BET-seq Pho4 binding data (Le et al. 2018)
Some of the results follow. The energies were worked out here from pooled read counts, against the library average; single values are noisy.

biological target: T1, Pho4 (S. cerevisiae) (UniProt P07270); assay: relative binding free energy (BET-seq); higher = weaker binding; settings: reference: library average
T1 sequence: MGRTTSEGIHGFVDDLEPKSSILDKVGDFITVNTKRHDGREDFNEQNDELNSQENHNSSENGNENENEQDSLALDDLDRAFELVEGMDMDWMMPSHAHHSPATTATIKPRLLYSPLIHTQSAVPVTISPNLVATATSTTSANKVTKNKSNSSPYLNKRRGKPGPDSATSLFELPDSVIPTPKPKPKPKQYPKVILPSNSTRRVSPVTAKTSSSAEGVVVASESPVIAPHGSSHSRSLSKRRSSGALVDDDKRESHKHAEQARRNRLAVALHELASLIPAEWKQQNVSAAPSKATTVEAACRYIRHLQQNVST

Row | Sequence | relative binding free energy [kcal/mol]
1 | TCGGGCACGTGTGGAG | -0.04
2 | TAAGGCACGTGGGCAT | -0.23
3 | ACATTCACGTGGAGTG | 0.1
4 | AGTATCACGTGGGCGA | -0.09
5 | TGCAGCACGTGGGGCG | -0.34
6 | AGGAGCACGTGGCTGG | -0.11
7 | CGGAGCACGTGGAGGG | -0.19
8 | AATAGCACGTGGGAAT | -0.13
9 | TAGTTCACGTGTCGTG | 0.22
10 | TTTTTCACGTGATTCG | 0.29
11 | AAGAGCACGTGAGTTT | 0.1
12 | TTTGTCACGTGATCTA | 0.1
13 | TGGGCCACGTGGGCCT | -0.12
14 | ACAGTCACGTGTATGT | 0.09
15 | CTTGGCACGTGCTGGG | -0.14
16 | TTGGGCACGTGGATAT | 0.04
17 | GATTTCACGTGTAAGT | 0.46
18 | AGGCTCACGTGCTTGT | 0.22
19 | TGTCACACGTGGTGTA | 0.03
20 | TTCGGCACGTGAAGGG | 0.15
21 | CGGTTCACGTGGGAGC | 0.27
22 | GGCTTCACGTGAGTAT | 0.5
23 | TTTATCACGTGGTTGT | 0.15

Row | Sequence | relative binding free energy [kcal/mol]
24 | TGATACACGTGTTGAA | 0.11
25 | TTAGGCACGTGGATTC | -0.04
26 | AGGTACACGTGTTGAT | 0.08
27 | GGAAGCACGTGTAGTA | -0.1
28 | TGTGTCACGTGGCATA | -0.04
29 | TATAGCACGTGGGGGG | -0.25
30 | TTAGGCACGTGGTTAG | -0.13
31 | TGTGACACGTGGTGGT | -0.07
32 | TGGGTCACGTGGGATG | 0.12
33 | TATATCACGTGGATCT | 0.2
34 | TTAGTCACGTGTCTTG | -0.03
35 | TCGTTCACGTGTCTAG | 0.46
36 | ATTAACACGTGGCAGG | 0.08
37 | AGAACCACGTGAGGGG | 0.16
38 | TGATGCACGTGTTGGA | -0.03
39 | ATTTCCACGTGTGTAG | 0.09
40 | AGTTGCACGTGTAAGC | 0.13
41 | TGGATCACGTGGTCAT | 0.19
42 | GTTAGCACGTGGGGTA | -0.18
43 | ATGGGCACGTGAAGAG | -0.03
44 | TGGGGCACGTGCGCGA | -0.46
45 | GATGCCACGTGGAGGG | -0.02
46 | AGTTTCACGTGGTAGC | 0.21

Row | Sequence | relative binding free energy [kcal/mol]
47 | TTGTGCACGTGGTCTC | -0.12
48 | TTGTCCACGTGAGGCG | 0.27
49 | GCAGGCACGTGGTGTG | -0.16
50 | GATCACACGTGGAGGT | 0.14
51 | TTAGACACGTGTGCGG | -0.05
52 | ACGGGCACGTGTATTT | 0.01
53 | CGTCTCACGTGGGGGC | -0.01
54 | GTGGCCACGTGGTTGG | -0.03
55 | TGGAGCACGTGTGCTA | -0.1
56 | AAGGCCACGTGGGGTG | -0.18
57 | GGGTTCACGTGATGTG | 0.46
58 | GATGTCACGTGTTTGC | 0.08
59 | CGGGGCACGTGTTCGG | -0.15
60 | GTATACACGTGATTAG | 0.23
61 | TTTAACACGTGTGAAT | 0.08
62 | TCGGTCACGTGTTTGG | 0.14
63 | TAGGTCACGTGGGGAG | 0.03
64 | TGACTCACGTGGGGTC | 0.01
65 | AATGACACGTGAGTGG | 0.26
66 | TGGCACACGTGTGTGC | 0.01
67 | GCTTGCACGTGCGTTT | 0.01
68 | GGTGTCACGTGTGGTC | 0.26
69 | TTGTTCACGTGTGGCG | 0.26

Row | Sequence | relative binding free energy [kcal/mol]
70 | TGATACACGTGCTAGG | 0.04
71 | TATAGCACGTGATAGG | -0.03
72 | GTCGGCACGTGCTGTT | 0.01
73 | CGATCCACGTGTTGGT | 0.06
74 | TGGCTCACGTGCGTGG | 0.06
75 | GTGTCCACGTGCAGTG | 0.01
76 | TAAATCACGTGGAATT | 0.19
77 | GCGGTCACGTGGTGTG | 0.05
78 | GTGATCACGTGGGTTA | -0.02
79 | TGATGCACGTGAGTCG | 0.13
80 | ACCGTCACGTGTGTGG | 0
81 | GAGGGCACGTGGTTAG | -0.04
82 | TGCGCCACGTGTGGAG | -0.01
83 | AAGGGCACGTGGTGCT | -0.16
84 | GAGGGCACGTGGGAGA | -0.11
85 | AGGAACACGTGGGTCG | -0.23
86 | TAACTCACGTGATTGT | 0.27
87 | TTATACACGTGGATGT | -0.13
88 | GTGACCACGTGGGGTT | -0.02
89 | GTAGACACGTGATTAT | 0.25
90 | AGTGGCACGTGTAAAG | 0
91 | TCAGTCACGTGCTTTT | 0.04
92 | TTAAGCACGTGCTAGG | -0.17

Row | Sequence | relative binding free energy [kcal/mol]
93 | GGCATCACGTGTTGAG | 0.19
94 | TTAGGCACGTGTCGTC | -0.01
95 | ATTGTCACGTGGGGAC | 0.01
96 | GTGTTCACGTGGATTC | 0.29
97 | GTCTACACGTGGTTGA | 0.1
98 | TATATCACGTGATGTA | 0.12
99 | TCATACACGTGCGGTT | 0.09
100 | GTCTTCACGTGTGGTA | 0.33
101 | ATGGGCACGTGTTATA | -0.09
102 | TGCGACACGTGAGGGT | 0.13
103 | GGTCGCACGTGAGATG | 0.27
104 | TTCTTCACGTGTAAGT | 0.27
105 | GGGGCCACGTGAGTAG | 0.18
106 | ATGGGCACGTGTGGAA | -0.14
107 | TCCTTCACGTGGGGGG | 0.12
108 | TGGTCCACGTGGGCAG | -0.25
109 | TTAGTCACGTGCCGGG | 0.05
110 | GGTGCCACGTGGGTTA | -0.15
111 | CCTAACACGTGGTGGG | 0.11
112 | ATTGTCACGTGAGCTT | 0.32
113 | ATTCTCACGTGTAGGT | 0.24
114 | ATTGGCACGTGCGGTA | -0.2
115 | CGGTGCACGTGAGCAG | 0.25
